# PMC4336329 (PLoS ONE, 2015)
# Among all 310,000 compounds or so, about 2,200 (0.71%) showed an effect of 50% or more. Effects have a minus sign here. The list shows a part of the results.
# Molecular target: human ether-à-go-go-related gene (hERG) potassium channel (human, UniProt Q12809)
# Test: primary screen, population patch clamp on CHO cells stably expressing hERG
# Chain of human ether-à-go-go-related gene (hERG) potassium channel (Q12809 whole entry, looked up): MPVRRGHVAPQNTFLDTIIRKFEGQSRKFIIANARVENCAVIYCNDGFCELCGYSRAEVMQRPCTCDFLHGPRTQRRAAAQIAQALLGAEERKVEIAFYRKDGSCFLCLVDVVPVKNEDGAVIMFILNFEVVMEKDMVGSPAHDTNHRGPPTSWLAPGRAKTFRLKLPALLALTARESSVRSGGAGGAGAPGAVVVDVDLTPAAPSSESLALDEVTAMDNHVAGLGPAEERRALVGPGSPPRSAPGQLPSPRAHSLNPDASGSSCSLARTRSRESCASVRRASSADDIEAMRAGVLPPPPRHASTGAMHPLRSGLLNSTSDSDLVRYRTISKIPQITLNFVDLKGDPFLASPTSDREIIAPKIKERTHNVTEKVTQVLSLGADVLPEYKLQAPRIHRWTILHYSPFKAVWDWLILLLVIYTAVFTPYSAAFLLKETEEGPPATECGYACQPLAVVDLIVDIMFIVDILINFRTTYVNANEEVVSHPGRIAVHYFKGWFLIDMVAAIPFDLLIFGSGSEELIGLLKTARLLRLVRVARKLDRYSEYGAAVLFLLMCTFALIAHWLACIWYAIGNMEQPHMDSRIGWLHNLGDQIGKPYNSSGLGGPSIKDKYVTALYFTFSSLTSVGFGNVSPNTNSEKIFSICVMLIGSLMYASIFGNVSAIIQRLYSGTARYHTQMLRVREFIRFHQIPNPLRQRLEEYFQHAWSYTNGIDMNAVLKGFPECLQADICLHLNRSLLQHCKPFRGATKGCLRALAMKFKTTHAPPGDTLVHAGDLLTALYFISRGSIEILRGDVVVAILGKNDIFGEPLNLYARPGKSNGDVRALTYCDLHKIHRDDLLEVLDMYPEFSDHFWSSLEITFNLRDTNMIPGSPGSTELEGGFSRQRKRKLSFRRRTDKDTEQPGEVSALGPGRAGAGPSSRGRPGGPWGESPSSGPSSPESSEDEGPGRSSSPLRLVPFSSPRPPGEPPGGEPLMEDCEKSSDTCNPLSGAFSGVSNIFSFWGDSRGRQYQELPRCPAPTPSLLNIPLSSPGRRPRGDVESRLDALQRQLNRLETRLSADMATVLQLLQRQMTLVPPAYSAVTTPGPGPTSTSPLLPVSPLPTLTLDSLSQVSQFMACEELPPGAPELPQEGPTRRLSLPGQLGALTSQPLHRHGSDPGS
row,SMILES,"hERG current change (%, negative = inhibition) at 1uM [%]"
1,c1ccc(CN2CCN(CCCNc3ccc4nnc(-c5ccccc5)n4n3)CC2)cc1,-13.5
2,O=C1c2cccc3cc([N+](=O)[O-])cc(c23)C(=O)N1c1nncs1,8.16
3,CC1CCN(CCNC(=O)CCS(=O)(=O)c2ccc(Br)cc2)CC1,3.43
4,Cc1ccc(SCC(=O)NCc2ccco2)cc1,11.4
5,O=C(Nc1cc(Cl)c(O)c(Cl)c1)C1CCCO1 (stereo not drawn),11.1
6,CN(C)NC(=O)C(NC(=O)c1ccccc1)C12CC3CC(CC(C3)C1)C2.Cl (stereo not drawn),8.26
7,O=C(NC1CC1)C1=C[C@@H](C2CCCCC2)C[C@@H](OCCCCO)O1,10.8
8,Cc1ccc(C(=O)N/C(=C\c2ccco2)C(=O)NCCN2CCOCC2)cc1C,8.38
9,CC(C)CCn1nnnc1C(c1ccc(F)cc1)N1CCN(C(=O)c2ccco2)CC1 (stereo not drawn),2.42
10,O=c1c2ccccc2oc2nc(-c3ccco3)n(-c3ccccc3)c(=O)c12,5.11
11,C=CCn1c(SCC(=O)NCC2CCCO2)nnc1C1CCCCC1 (stereo not drawn),14.7
12,Cc1cc(C)cc(NC(=S)NC(=O)CCN2C(=O)c3ccccc3C2=O)c1,11.4
13,O=C(NCc1cn2ccccc2n1)c1ccc(Br)o1,9.26
14,N#CCS(=O)(=O)c1ccccc1,19.6
15,COc1ccc(N(CC(=O)NC2CCCCC2)C(=O)CNC(=O)c2ccco2)cc1,6.67
16,CCOC(CNC(=O)c1nnc(Cc2cc(OC)c(OC)c(OC)c2)o1)OCC,8.8
17,CCOC(=O)c1c(C)nc2sc(C(=O)Nc3ccccc3)c(N)c2c1-c1ccc(OC)cc1,14.6
18,O=C(CCN1CCCCC1)NCNC(=O)CCN1CCCCC1,11.3
19,C=CCN1CC[C@@]2(C)c3cc(O)ccc3CC1[C@@H]2C.Cl,0.191
20,Cc1ccccc1NC(=O)NCCc1c[nH]c2ccccc12,10.5
21,CC1CCN(S(=O)(=O)CCNC(=O)c2ccc3c(c2)OCO3)CC1,0.605
22,CC(=O)c1c(C)[nH]c(C(=O)NCc2cccs2)c1C,8.54
23,CCOc1ccc2nc(SCC#N)c(C#N)cc2c1,8.26

row,SMILES,"hERG current change (%, negative = inhibition) at 1uM [%]"
1,CCOc1cc(N2CCOCC2)c(OCC)cc1NC(=O)CN1C(=O)NC2(CCc3ccccc32)C1=O (stereo not drawn),-7.8
2,O=C(N/N=C/c1ccccn1)c1cccc(S(=O)(=O)N2CCCC2)c1,2.48
3,COc1ccc(CCNC(=O)Cn2cccc2C(=O)c2ccccc2)c(OC)c1,13.6
4,C=CCn1c(COc2ccc(F)cc2)nnc1SCC(=O)NC1CC1,12.6
5,COc1ccc(C(=O)N2CCC(n3c(C)nc4cc(F)ccc43)CC2)cc1OC,-41.8
6,COc1cccc(NC(=O)Cn2c(CCC(=O)O)ccc2-c2ccc(C)cc2)c1,7
7,Cc1ccc(NC(=O)CSc2nc(=O)n(CCCN3CCOCC3)c3c2CCCC3)c(C)c1,9.2
8,Cc1ccc(NC(=O)CN(C)CC(=O)Nc2cccc(F)c2)cc1[N+](=O)[O-],1.27
9,Cc1cc(NC(=O)Nc2ccc(Cl)c(Cl)c2)n(-c2ccccc2)n1,10.3
10,COc1ccc(/C=C2\SC(=O)N(CCC(=O)Nc3ccc(S(=O)(=O)Nc4nccs4)cc3)C2=O)cc1,8.56
11,C=CCOc1ccccc1CN1CCCN(C)CC1,11.7
12,CSc1nnc(C)c(=O)n1COC(=O)COc1ccc2ccccc2c1,12.2
13,CCSc1ccccc1C(=O)NCc1ccc2c(c1)OCO2,-2.88
14,O=C(COC(=O)CCc1nc2ccccc2s1)Nc1ncc(Cl)cc1Cl,8.4
15,Cc1cc(C)c(NC(=O)CNC(=O)Cc2sc(C)nc2-c2ccc(F)cc2)c(C)c1,12.4
16,Cc1noc(C)c1C(=O)Nc1nnc(-c2ccccc2)s1,7.78
17,O=C1CC(c2ccccc2)CN1C(=O)c1cncc(Br)c1 (stereo not drawn),13.3
18,Cc1cc(C)cc(C(=O)Oc2coc(CSc3nnc(NC(=O)C4CC4)s3)cc2=O)c1,6.84
19,CC(C)CC(O)C1CCN(C(=O)CCc2nnc(-c3ccc4c(c3)OCO4)o2)CC1 (stereo not drawn),13.6
20,CN(C)c1ccc(/C=N/NC(=O)CCc2c[nH]c3ccccc23)cc1,6.21
21,C/C(Cn1cnc([N+](=O)[O-])n1)=N\NC(=O)c1ccc(F)cc1,19.3
22,CCc1ccc(NC(=O)CCc2nc3sc4c(c3c(=O)[nH]2)CCCC4)cc1,1.53
23,CSC1=NCCN1C(=O)C(C)(C)Oc1ccc(Cl)cc1,7.31

row,SMILES,"hERG current change (%, negative = inhibition) at 1uM [%]"
1,COc1ccccc1-c1coc2c(CN3CCC(C)CC3)c(O)ccc2c1=O,14.3
2,CC(C)(C)C(=O)Nc1ccc(/C=C/C(=O)c2ccco2)cc1,13.9
3,Clc1cccc(-c2nc3nc4ccccc4nc3n2Cc2ccccc2)c1,9.82
4,COc1ccc(N(Cc2cc3ccc(C)cc3[nH]c2=O)C(C)=O)cc1,8.33
5,Cc1[nH]c2ccccc2c1CC(=O)O,9.08
6,Cc1c(NN=C(C#N)C#N)c(=O)n(-c2ccccc2)n1C,13.4
7,Fc1ccc(-c2nnc(-c3ccc(Cl)cc3Cl)o2)cc1,-0.777
8,Fc1ccc(-c2nnc(N3CCOCC3)c3ccccc23)cc1F,15
9,CCN(CC)CCN1C(=O)C(=O)/C(=C(/O)c2ccc(F)cc2)C1c1cccnc1 (stereo not drawn),14.9
10,O=c1c2c3c(sc2nc2n1CCC2)CCC3,10.8
11,FC(F)(F)c1ccccc1NC(=S)NN=C1CCCCCC1,1.7
12,O=C(NC(=S)Nc1cc(-c2nc3ccccc3[nH]2)ccc1Cl)c1ccc2c(c1)OCO2,17.5
13,COc1ccc2nc(NS(=O)(=O)c3ccc(NC(C)=O)cc3)sc2c1,14.5
14,Cc1cc(C(=O)CCl)c(C)n1CC1COc2ccccc2O1 (stereo not drawn),6
15,O=C(O)c1cccc(NS(=O)(=O)c2ccc(NC(=O)c3ccco3)cc2)c1,13.9
16,COc1cc2c(cc1OC)C(c1ccc(Br)cc1)N(C(=O)c1ccccc1C(=O)O)CC2 (stereo not drawn),10.4
17,O=C(COc1ccccc1Cl)N1CCN(C(=O)c2ccco2)CC1,8.67
18,COc1ccc(N(C)S(=O)(=O)c2ccc3c(c2)oc(=O)n3C)cc1,10.7
19,CCOc1ccccc1NCc1nnc(-c2ccccc2)o1,14.9
20,Cc1ccccc1-c1nc(-c2ccccn2)no1,4.47
21,O=C1CSC(=Nc2ccccc2[N+](=O)[O-])N1,9.39
22,CCOC(=O)N1CCN(Cc2nc3cc(NC(=O)C(C)C)ccc3n2CC)CC1,16.4
23,COc1ccc(OC)c(NC(=O)c2cnc(Nc3ccccc3OC)c3ccccc23)c1,-3.53

row,SMILES,"hERG current change (%, negative = inhibition) at 1uM [%]"
1,CCn1c2ccccc2c2nn(C)c(=N)nc21,-17.6
2,CCC1CCCCN1S(=O)(=O)c1ccc(C(=O)N(CCCN(C)C)c2nc3cc4c(cc3s2)OCO4)cc1.Cl (stereo not drawn),15.1
3,CCc1nnc(NC(=O)CCN(c2ccc(C)cc2)S(=O)(=O)c2ccccc2)s1,17.6
4,CC(C)CNS(=O)(=O)c1ccc(CCC(=O)NCc2cccnc2)cc1,0.985
5,COc1ccc(CC(=O)Nc2c(C(=O)N3CCN(c4ncccn4)CC3)oc3ccccc23)cc1,-21.4
6,COc1ccc(Cl)cc1NC(=O)CN(C)C(=O)C12CC3CC(CC(Cl)(C3)C1)C2,14.8
7,CN(C)CCNC(=O)c1ccc(CS(=O)(=O)c2ccc(Br)cc2)o1,3.84
8,Cc1c(C(=O)NC(C)c2ccncc2)oc2ccccc12 (stereo not drawn),-19.8
9,CC1CC(=O)NN=C1c1cccs1 (stereo not drawn),3.75
10,CCc1ccc(C(C)NC(=O)C2(C)CC2(Br)Br)cc1 (stereo not drawn),18
11,CSc1ccccc1NC(=O)Cc1ccc(Br)cc1,3.18
12,Brc1ccc2c(c1)CN1CCCC1=N2,5.54
13,FC(F)(F)c1ccc2c(c1)nnn2C1CCN(Cc2nnnn2Cc2ccccc2)CC1,-32.4
14,CCN1C(=Nc2ccc(Cl)cc2)SC/C1=C\C(=O)OC,4.11
15,Cc1ccc2c(c1)N(C(=O)CCC(=O)NCC(C)c1ccccc1)CC(C)O2 (stereo not drawn),-2.49
16,Cc1cccc(N2CCN(C(=O)c3c(-c4ccccc4)noc3C)CC2)c1C,10.1
17,COc1ccccc1N1CCN(CC(=O)N2N=CCC2c2ccccc2)CC1 (stereo not drawn),0.341
18,CCCCN1CCc2c([nH]c3c(C)cccc23)C1=O,-3.47
19,COc1ccc(CCn2c(O)c(/C=N/N3CCCCC3)c(=O)[nH]c2=O)cc1OC,10.1
20,COc1ccccc1Nc1ccc(NC(=O)c2cccc([N+](=O)[O-])c2C)cc1,14.6
21,O=C(Nc1cccc(F)c1)C1CCN(S(=O)(=O)c2cnc[nH]2)CC1,17.7
